{"source": "paper PMC4336329", "about": "(PLoS ONE, 2015)", "note": "The campaign covered roughly 310,000 compounds. About 14,000 (4.5%) showed an effect of 50% or more. Effects have a minus sign here. The list shows a part of the results.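 Also: peak tail current of the secondary pulse compared with the same well before compound.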", "data": [{"target": "human ether-à-go-go-related gene (hERG) potassium channel (human, UniProt Q12809)", "sequence (Q12809 whole entry, looked up)": "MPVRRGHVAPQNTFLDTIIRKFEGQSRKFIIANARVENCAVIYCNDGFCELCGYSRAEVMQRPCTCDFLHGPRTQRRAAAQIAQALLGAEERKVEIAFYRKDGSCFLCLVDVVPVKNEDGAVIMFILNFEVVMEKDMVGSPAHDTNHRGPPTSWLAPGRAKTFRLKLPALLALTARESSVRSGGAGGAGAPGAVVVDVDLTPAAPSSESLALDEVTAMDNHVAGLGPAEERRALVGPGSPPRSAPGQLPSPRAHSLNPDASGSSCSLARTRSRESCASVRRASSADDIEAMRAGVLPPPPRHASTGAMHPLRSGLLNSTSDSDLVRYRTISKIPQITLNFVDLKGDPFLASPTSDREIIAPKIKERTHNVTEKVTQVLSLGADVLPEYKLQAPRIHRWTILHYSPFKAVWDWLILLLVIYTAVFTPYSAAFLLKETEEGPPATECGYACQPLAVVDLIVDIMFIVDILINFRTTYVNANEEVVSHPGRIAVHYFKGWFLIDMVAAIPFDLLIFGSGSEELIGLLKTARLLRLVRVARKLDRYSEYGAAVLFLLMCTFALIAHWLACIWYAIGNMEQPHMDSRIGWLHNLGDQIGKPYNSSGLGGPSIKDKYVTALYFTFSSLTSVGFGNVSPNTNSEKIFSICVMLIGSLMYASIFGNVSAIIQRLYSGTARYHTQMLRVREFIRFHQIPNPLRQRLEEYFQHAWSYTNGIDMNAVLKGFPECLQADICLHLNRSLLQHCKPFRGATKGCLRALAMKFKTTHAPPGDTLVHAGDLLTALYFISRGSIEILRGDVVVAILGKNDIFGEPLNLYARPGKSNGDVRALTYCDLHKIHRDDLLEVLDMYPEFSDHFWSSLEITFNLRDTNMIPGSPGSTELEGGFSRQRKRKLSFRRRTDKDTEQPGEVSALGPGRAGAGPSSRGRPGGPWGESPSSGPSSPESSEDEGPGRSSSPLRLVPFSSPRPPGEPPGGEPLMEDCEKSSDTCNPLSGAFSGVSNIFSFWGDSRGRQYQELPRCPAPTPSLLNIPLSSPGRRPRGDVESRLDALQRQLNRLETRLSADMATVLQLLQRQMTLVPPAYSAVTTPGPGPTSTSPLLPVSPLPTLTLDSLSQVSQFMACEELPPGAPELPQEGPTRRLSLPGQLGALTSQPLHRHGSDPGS", "assay": "primary screen, population patch clamp on CHO cells stably expressing hERG", "units": {"hERG current change (%, negative = inhibition) at 10uM": "%"}, "values": [{"smiles": "COc1ccccc1NC(=O)c1cc(Br)ccc1Cl", "hERG current change (%, negative = inhibition) at 10uM": 2.96}, {"smiles": "COc1ccccc1CN(C)C(=O)CNC(=O)c1cccc(Cl)c1", "hERG current change (%, negative = inhibition) at 10uM": 9.69}, {"smiles": "Cc1cc(NC(=O)Nc2ccccc2Cl)no1", "hERG current change (%, negative = inhibition) at 10uM": 8.67}, {"smiles": "COc1ccc(CCN2CC(C(=O)N3CCCCCC3)CCC2=O)cc1", "note": "(stereo not drawn)", "hERG current change (%, negative = inhibition) at 10uM": 10.6}, {"smiles": "O=C(COC(=O)c1ccc(Br)o1)NCc1ccco1", "hERG current change (%, negative = inhibition) at 10uM": 3.53}, {"smiles": "c1csc(-c2cc(N3CCCCC3)c3ccccc3n2)c1", "hERG current change (%, negative = inhibition) at 10uM": 17}, {"smiles": "Nn1c(SCC(=O)Nc2ccccc2)nnc1C1CCCCC1", "hERG current change (%, negative = inhibition) at 10uM": -1.45}, {"smiles": "O=C(c1ccc2c3c(cccc13)CC2)C1CCCN(Cc2cccnc2)C1", "note": "(stereo not drawn)", "hERG current change (%, negative = inhibition) at 10uM": -63.4}, {"smiles": "C/C(=N\\NC(=O)c1ccc(Cl)c(Cl)c1)c1ccc(Br)s1", "hERG current change (%, negative = inhibition) at 10uM": -4.57}, {"smiles": "CCOc1ccc2nc(N(CCN(CC)CC)C(=O)/C=C/c3cccs3)sc2c1.Cl", "hERG current change (%, negative = inhibition) at 10uM": 9.88}, {"smiles": "Nc1nnnn1/N=C/c1ccc(F)cc1", "hERG current change (%, negative = inhibition) at 10uM": 29.7}, {"smiles": "COc1cc(C(C#N)N2CCC(c3ccccc3)=N2)ccc1O", "note": "(stereo not drawn)", "hERG current change (%, negative = inhibition) at 10uM": -10.4}, {"smiles": "CCCn1c(SCC(=O)Nc2cccc(C(=O)OCC)c2)nnc1-c1ccoc1C", "hERG current change (%, negative = inhibition) at 10uM": -2.61}, {"smiles": "O=S(=O)(Cc1ccccc1)c1ccccc1-c1nnc(-c2ccccc2)o1", "hERG current change (%, negative = inhibition) at 10uM": 12.4}, {"smiles": "COc1ccc(C(=O)NCC(=O)Nc2ccc(F)cc2)cc1OC", "hERG current change (%, negative = inhibition) at 10uM": 0.171}, {"smiles": "C/C=C/C=N/Nc1nc(C)cc(=O)[nH]1", "hERG current change (%, negative = inhibition) at 10uM": -3.9}, {"smiles": "O=C(CN1C(=O)/C(=C/c2ccc(Cl)cc2)SC1=S)NC1C=CS(=O)(=O)C1", "note": "(stereo not drawn)", "hERG current change (%, negative = inhibition) at 10uM": 9.98}, {"smiles": "COc1cc(/C=N/NC(=O)c2nonc2C)ccc1O", "hERG current change (%, negative = inhibition) at 10uM": 27.5}, {"smiles": "N#CCSc1nc(Nc2ccc3c(c2)OCO3)c2ccccc2n1", "hERG current change (%, negative = inhibition) at 10uM": -2.16}, {"smiles": "COc1ccc(-c2nc(CC(=O)O)cs2)cc1OC", "hERG current change (%, negative = inhibition) at 10uM": 21.3}, {"smiles": "O=C(NNC(=O)c1ccccc1-n1cccc1)c1ccc(Cl)cc1Cl", "hERG current change (%, negative = inhibition) at 10uM": -7.83}, {"smiles": "COc1cccc(-c2cccc(NC(=O)C3CCN(Cc4ccc(CO)o4)CC3)c2)c1", "hERG current change (%, negative = inhibition) at 10uM": -32.5}, {"smiles": "CCCCNC(=O)C1CCN(S(=O)(=O)c2ccc3c(c2)CC(C)N3C(=O)C2CC2)CC1", "note": "(stereo not drawn)", "hERG current change (%, negative = inhibition) at 10uM": 1.16}, {"smiles": "c1ccc(-c2csc(Nc3nc(N4CCOCC4)nc(N4CCOCC4)n3)n2)cc1", "hERG current change (%, negative = inhibition) at 10uM": 6.59}, {"smiles": "CC(Oc1ccccc1)C(=O)NC1=NCCS1", "note": "(stereo not drawn)", "hERG current change (%, negative = inhibition) at 10uM": 8.52}, {"smiles": "CC(=O)Nc1cccc(C(=O)Nc2ccccc2C(=O)O)c1", "hERG current change (%, negative = inhibition) at 10uM": 7.39}, {"smiles": "Cc1ccc(C)c(NC(=S)NNC(=O)c2ccco2)c1", "hERG current change (%, negative = inhibition) at 10uM": 10.2}, {"smiles": "COc1ccc(OC)c(/C=N\\NC(=O)c2c(C)nc3cc(C)ccn23)c1", "hERG current change (%, negative = inhibition) at 10uM": -31}, {"smiles": "CCn1c(C)nnc1SCC(=O)Nc1ccccc1Cl", "hERG current change (%, negative = inhibition) at 10uM": 4.99}, {"smiles": "CC(C)NCC(O)COc1ccc(CCOCC2CC2)cc1.Cl", "note": "(stereo not drawn)", "hERG current change (%, negative = inhibition) at 10uM": -8.64}, {"smiles": "CC1=CC2=NC(=O)/C(=C\\c3cccn3CCOc3ccccc3C)C(=N)N2O1", "hERG current change (%, negative = inhibition) at 10uM": 19.4}, {"smiles": "COc1ccc(C(=O)COC(=O)CNC(=O)c2cccc(OC(F)F)c2)cc1", "hERG current change (%, negative = inhibition) at 10uM": -64.6}, {"smiles": "O=C(NCC1CC1)C1CCCN(S(=O)(=O)c2ccc(-n3cnnn3)cc2)C1", "note": "(stereo not drawn)", "hERG current change (%, negative = inhibition) at 10uM": -63.7}, {"smiles": "O=C(O)c1cc2ccccc2oc1=O", "hERG current change (%, negative = inhibition) at 10uM": -3.63}, {"smiles": "COc1ccc(CC(=O)O/N=C(\\N)c2ccccn2)cc1", "hERG current change (%, negative = inhibition) at 10uM": -0.445}, {"smiles": "CC(=O)Nc1cc(NC(C)=O)c(N=Nc2ccccc2)cc1C", "hERG current change (%, negative = inhibition) at 10uM": 8.41}, {"smiles": "CC1Cc2ccccc2N1CC(=O)NC(=O)NC1CCCCC1", "note": "(stereo not drawn)", "hERG current change (%, negative = inhibition) at 10uM": -8.93}, {"smiles": "Nc1ncc(N=Nc2cc(C(=O)O)ccc2Cl)s1", "hERG current change (%, negative = inhibition) at 10uM": 4.47}, {"smiles": "CCCCn1c(N)c(N(CC(C)C)C(=O)C2CC(=O)N(c3ccc4c(c3)OCCO4)C2)c(=O)[nH]c1=O", "note": "(stereo not drawn)", "hERG current change (%, negative = inhibition) at 10uM": 8.32}, {"smiles": "Cc1ccc(NC(=O)CSC2=C(C#N)C(c3ccc4c(c3)OCO4)CC(=O)N2)cc1C", "note": "(stereo not drawn)", "hERG current change (%, negative = inhibition) at 10uM": 0.529}, {"smiles": "NCCCC[C@H]1CNC(=O)C(=O)N1CCCCC1CCCCC1", "hERG current change (%, negative = inhibition) at 10uM": 17.4}, {"smiles": "CC(C)N1CCN(Cc2cccn2-c2nccs2)CC1CCO", "note": "(stereo not drawn)", "hERG current change (%, negative = inhibition) at 10uM": 10.2}, {"smiles": "O=C(COC(=O)c1c[nH]c2ccccc12)NC1CCCC1", "hERG current change (%, negative = inhibition) at 10uM": 7.16}, {"smiles": "COc1cc(/C=N/NC(=O)CCC(=O)NC2CCCCC2)ccc1C", "hERG current change (%, negative = inhibition) at 10uM": -10.2}, {"smiles": "Cc1ccc(NC(=O)CN(C)C(=O)COC(=O)C2=COCCO2)cc1", "hERG current change (%, negative = inhibition) at 10uM": 15.1}]}]}
